Reference: publication PMC4336329 (PLoS ONE, 2015)
The whole screen tested about 310,000 compounds, of which about 2,200 (0.71%) showed an effect of 50% or more. Effects have a minus sign here. The list shows a part of the results.

These molecules were tested against human ether-à-go-go-related gene (hERG) potassium channel (human, UniProt Q12809) (assay: primary screen, population patch clamp on CHO cells stably expressing hERG).
Sequence of human ether-à-go-go-related gene (hERG) potassium channel (Q12809 whole entry, looked up): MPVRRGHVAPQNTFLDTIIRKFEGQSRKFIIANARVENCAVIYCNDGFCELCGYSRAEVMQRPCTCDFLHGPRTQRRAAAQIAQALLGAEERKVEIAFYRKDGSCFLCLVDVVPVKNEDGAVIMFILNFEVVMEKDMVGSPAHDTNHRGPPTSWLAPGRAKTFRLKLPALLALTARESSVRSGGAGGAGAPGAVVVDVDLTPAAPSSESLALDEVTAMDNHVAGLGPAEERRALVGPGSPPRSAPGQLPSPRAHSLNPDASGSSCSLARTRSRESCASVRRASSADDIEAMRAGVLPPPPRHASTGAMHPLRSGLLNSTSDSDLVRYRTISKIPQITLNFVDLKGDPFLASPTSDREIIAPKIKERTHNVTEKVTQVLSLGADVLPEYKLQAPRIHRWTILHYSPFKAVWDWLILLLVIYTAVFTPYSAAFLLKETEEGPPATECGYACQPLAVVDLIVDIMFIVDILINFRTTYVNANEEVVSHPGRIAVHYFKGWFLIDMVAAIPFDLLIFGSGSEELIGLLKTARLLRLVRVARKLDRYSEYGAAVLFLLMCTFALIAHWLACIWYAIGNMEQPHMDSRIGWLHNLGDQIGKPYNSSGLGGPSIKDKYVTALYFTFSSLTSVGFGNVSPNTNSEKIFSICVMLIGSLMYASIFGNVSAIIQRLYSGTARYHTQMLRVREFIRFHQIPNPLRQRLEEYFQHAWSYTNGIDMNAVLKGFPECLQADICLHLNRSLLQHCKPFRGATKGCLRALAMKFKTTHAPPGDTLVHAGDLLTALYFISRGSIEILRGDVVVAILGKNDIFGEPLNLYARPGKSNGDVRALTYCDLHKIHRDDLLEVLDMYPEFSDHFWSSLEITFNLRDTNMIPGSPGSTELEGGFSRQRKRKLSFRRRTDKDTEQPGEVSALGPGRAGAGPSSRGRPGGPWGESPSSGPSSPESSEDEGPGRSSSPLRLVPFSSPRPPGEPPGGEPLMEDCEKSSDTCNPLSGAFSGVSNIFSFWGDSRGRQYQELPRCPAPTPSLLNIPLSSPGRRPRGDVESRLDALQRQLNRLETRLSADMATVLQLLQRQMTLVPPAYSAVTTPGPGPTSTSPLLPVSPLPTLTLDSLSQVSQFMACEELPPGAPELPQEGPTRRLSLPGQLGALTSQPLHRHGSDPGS

SMILES	hERG current change (%, negative = inhibition) at 1uM
Nc1nc(N)nc(-c2ccc(Oc3ccccc3)cc2)n1	15.2%
Cn1c(Cc2ccccc2)nnc1SCC(=O)Nc1ccccc1N1CCOCC1	9.22%
O=C(Nc1ccccc1)/C(=C/c1ccc(F)cc1)NC(=O)c1ccco1	7.46%
Cc1ccccc1OCCC(=O)Nc1ccccc1C(=O)N1CCCCC1	10.9%
Cc1ccc(C(=O)COC(=O)CNC(=O)c2ccc(Br)o2)cc1[N+](=O)[O-]	10%
Cc1ccc(NC(=O)COC(=O)CCC(=O)c2cccs2)cc1C	8.49%
Cc1ccc(C)c(N(CC(=O)NCCc2ccccc2)C(=O)CCC(=O)Nc2ccccn2)c1	12.6%
N#CCc1nn2c(-c3ccccc3)ccnc2c1C#N	9.54%
N#CC1(P(=O)(c2ccccc2)c2ccccc2)CCCC1	9.29%
Cc1cc(C)c(C)c(S(=O)(=O)NC(C(=O)NCCc2ccco2)C(C)C)c1C (stereo not drawn)	11.7%
COc1ccc(Cl)cc1N(CC(=O)N(C)C)S(=O)(=O)c1ccc(C)c([N+](=O)[O-])c1	6.51%
COc1cccc(CN2CC(C(=O)NCCn3cccn3)CCC2=O)c1 (stereo not drawn)	16.3%
Cc1[nH]c2ccccc2c1CCC(N)=O	0.826%
N#CCSc1nnc(-c2ccc(S(=O)(=O)N3CCOCC3)cc2)n1CC1CCCO1 (stereo not drawn)	7.22%
COc1ccc(-n2cnnc2)cc1	9.29%
CCN(c1ccccc1)S(=O)(=O)c1cc(C(=O)Nc2cccc(Cl)c2)ccc1F	20.2%
CCOC(=O)N1CCN(CC(O)COCC2=CCC3CC2C3(C)C)CC1.O=C(O)C(=O)O (stereo not drawn)	2.84%
O=C(CNC(=O)c1ccccc1Cl)OCC(=O)N1CCc2ccccc21	-8.77%
O=c1sc(/C=N/Nc2ccccc2)c(Cl)n1Cc1ccccc1	11.8%
Cc1c(NC(=O)COC(=O)/C=C/c2ccccc2Br)c(=O)n(-c2ccccc2)n1C	8.21%
O=C(Cc1cccc2ccccc12)NNC(=O)Nc1ccc(Cl)cc1	7.15%

SMILES	hERG current change (%, negative = inhibition) at 1uM
COc1ccc(C(CC(=O)O)NC(=O)c2cc3cc(Br)ccc3oc2=O)cc1OC (stereo not drawn)	21.7%
Cc1cc(C)c2c(NC(=S)NC(=O)c3ccccc3)n[nH]c2n1	13.3%
CCCCOc1ccc(-c2ncc(C(=O)O)c(C)n2)cc1	13.4%
CS(=O)(=O)N1c2ccccc2[C@]2([C@@]34C[C@H]5C(=O)N[C@@H](Cc6ccccc6)C(=O)N5[C@@H]3N(S(C)(=O)=O)c3ccccc34)C[C@H]3C(=O)N[C@@H](Cc4ccccc4)C(=O)N3[C@H]12	14.6%
COc1cc(NC(=O)CSc2nnc3c(C)cc4cc(C)cc(C)c4n23)c(C(=O)O)cc1OC	12.8%
CCN(C(=O)CN1CCN(c2ccc(O)cc2)CC1)c1c(N)n(Cc2ccccc2)c(=O)[nH]c1=O	-3.76%
CCOC(=O)C1CCN(C(c2cccc(OC)c2)c2sc3nc(C)nn3c2O)CC1 (stereo not drawn)	-3.58%
O=C(CNC(=O)c1ccccc1)NCC(=O)OCc1ccccc1Cl	20.3%
N#Cc1ccc(-c2ccc(OCC(O)Cn3nnc4ccccc43)cc2)cc1 (stereo not drawn)	11.4%
Cc1cc(C)n(-c2ncccc2[N+](=O)[O-])n1	14.4%
O=S(=O)(NCCC1=CCCCC1)c1cccc(Br)c1	5.79%
CC1=C(C(=O)OC(C)C)C(c2cccc(F)c2)N2C(=O)C(C)SC2=N1 (stereo not drawn)	6.43%
O=C(O)c1ccc(N=Cc2c(O)[nH]c(=O)[nH]c2=O)cc1	12.3%
Nc1nonc1-n1nnc(C(=O)N/N=C/c2ccoc2)c1-c1ccccc1	7.6%
CN(c1ccccc1C(=O)N1CCN(Cc2ccc3c(c2)OCO3)CC1)S(C)(=O)=O	9.07%
COc1ccc(N2C(=O)CCC(C(=O)NCc3ccccn3)C2c2ccc(F)cc2)cc1 (stereo not drawn)	20.5%
Cc1ccc(OCC(=O)NCCCNC(=O)c2cccnc2)cc1	10.8%
O=C(Cc1c(F)cccc1Cl)Nc1ccccc1N1CCCCC1	-12.8%
Cc1ccc(O)c(-c2cc(-c3ccccc3F)[nH]n2)c1	9.67%
O=c1[nH]c(NCCO)c(N=Cc2ccccc2)c(=O)[nH]1	17.5%
O=C(c1cc(Cl)c(=O)n(Cc2ccccc2)c1)N1CCOCC1	0.669%
